In article PMC4922019:
Results are given in words; binding and its absence hold for the method and conditions named. In cells and extracts the contact can be indirect. Some results given as binding are weak or reduced against the parent protein; the word gives no strength.

T1: endogenous flot-1 (HEK293) (human (endogenous in HEK293)) (UniProt O75955)
T1 sequence: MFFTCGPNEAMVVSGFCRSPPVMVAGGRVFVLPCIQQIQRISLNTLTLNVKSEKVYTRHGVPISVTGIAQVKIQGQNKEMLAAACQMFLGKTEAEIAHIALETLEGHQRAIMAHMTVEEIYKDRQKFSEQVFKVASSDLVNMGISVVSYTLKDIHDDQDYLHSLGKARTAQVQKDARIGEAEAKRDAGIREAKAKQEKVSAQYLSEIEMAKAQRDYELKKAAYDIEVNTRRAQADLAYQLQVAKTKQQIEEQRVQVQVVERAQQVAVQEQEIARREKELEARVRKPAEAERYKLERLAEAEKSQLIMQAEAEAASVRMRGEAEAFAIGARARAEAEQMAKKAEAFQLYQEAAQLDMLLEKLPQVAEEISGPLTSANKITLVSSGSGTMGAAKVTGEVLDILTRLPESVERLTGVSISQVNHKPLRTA

T2: flotillin-1 (mouse (endogenous in MEF)) (UniProt O08917)
T2 sequence: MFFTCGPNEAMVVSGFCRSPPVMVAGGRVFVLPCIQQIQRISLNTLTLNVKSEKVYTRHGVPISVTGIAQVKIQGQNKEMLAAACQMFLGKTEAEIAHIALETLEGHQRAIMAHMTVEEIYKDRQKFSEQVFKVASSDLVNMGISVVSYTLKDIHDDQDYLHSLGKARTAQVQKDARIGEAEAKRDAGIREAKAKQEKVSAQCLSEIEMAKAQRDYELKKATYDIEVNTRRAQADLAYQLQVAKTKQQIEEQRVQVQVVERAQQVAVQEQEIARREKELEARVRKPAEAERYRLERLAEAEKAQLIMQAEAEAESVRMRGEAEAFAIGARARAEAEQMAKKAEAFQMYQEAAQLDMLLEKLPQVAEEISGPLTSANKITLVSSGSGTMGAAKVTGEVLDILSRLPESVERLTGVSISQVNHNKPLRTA

T3: DJ-1 (mouse (endogenous in MEF)) (UniProt Q99LX0)
T3 sequence: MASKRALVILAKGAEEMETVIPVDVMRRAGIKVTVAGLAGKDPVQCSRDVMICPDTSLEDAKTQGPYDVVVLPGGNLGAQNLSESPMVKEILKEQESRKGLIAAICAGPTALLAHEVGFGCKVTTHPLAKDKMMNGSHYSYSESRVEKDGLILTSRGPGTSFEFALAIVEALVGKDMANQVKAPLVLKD

B1: DJ-1 (protein, UniProt Q99LX0 1-189)
chain: T3 sequence
B2: caveolin-1 (protein, UniProt P49817 1-178)
chain: MSGGKYVDSEGHLYTVPIREQGNIYKPNNKAMADEVTEKQVYDAHTKEIDLVNRDPKHLNDDVVKIDFEDVIAEPEGTHSFDGIWKASFTTFTVTKYWFYRLLSTIFGIPMALIWGIYFAILSFLHIWAVVPCIKSFLIEIQCISRVYSIYVHTFCDPLFEAIGKIFSNIRISTQKEI

Legend:
[1] = target: T1, endogenous flot-1 (HEK293) (human (endogenous in HEK293)); test: co-IP; HEK293 cells transfected with flag-tagged WT DJ-1 or mutants (M26I, L166P); lysate immunoprecipitated with anti-flot-1 antibody, protein G-agarose, RIPA buffer; Western blot for flot-1 and DJ-1
[2] = target: T2, flotillin-1 (mouse (endogenous in MEF)); test: proximity ligation; in situ PLA (DuoLink kit) in fixed, permeabilised WT MEF cells with primary antibodies against DJ-1 and flot-1; confocal microscopy
[3] = target: T2, flotillin-1 (mouse (endogenous in MEF)); test: co-IP; lysates of WT and DJ-1 KO MEF cells in RIPA buffer; 1 mg supernatant with 1 ug anti-DJ-1 or anti-flot-1 antibody (IgG as negative control) overnight at 4 C, protein G-agarose, washed with ice-cold RIPA buffer; Western blot for DJ-1, flot-1 and cav-1
[4] = target: T3, DJ-1 (mouse (endogenous in MEF)); test: as above

| Molecule | binding [1] | also measured |
| --- | --- | --- |
| flag-tagged DJ-1 L166P (from UniProt Q99497 1-189) | binds |  |
| flag-tagged DJ-1 M26I (from UniProt Q99497 1-189) | binds |  |
| flag-tagged WT DJ-1 (from UniProt Q99497 1-189) | binds |  |
| B1 |  | binding [2]: binds; binding [3]: binds |
| B2 |  | binding [4]: no binding |
